# Experimental data reported in paper PMC3335097 (2012).
# No constants are given. Whether binding was seen depends on the method and setting. Some entries that bind do so weakly or less than the wild type.
# T1: p15 fragment of spin labeled cleaved mouse Bid (cBidR1), MTSSL on C126 (mouse), P70444
# T1 chain: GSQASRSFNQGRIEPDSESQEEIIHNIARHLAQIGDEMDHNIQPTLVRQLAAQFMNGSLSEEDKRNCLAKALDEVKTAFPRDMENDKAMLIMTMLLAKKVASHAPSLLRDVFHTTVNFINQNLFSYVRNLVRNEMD
# T2: p15 fragment of Caspase-8-cleaved mouse Bid (tBid) (mouse), P70444
# T2 chain: T1 chain
# B1: p7 fragment of Caspase-8-cleaved mouse Bid (protein)
# chain: MDSEVSNGSGLGAEHITDLLVFGFLQSSGCTRQELEVLGRELPVQAYWEADLEDELQTD
# B2: p7 fragment of spin labeled cleaved mouse Bid (cBidR1), MTSSL on C30 (domain or fragment, UniProt P70444 1-59)
# chain: B1 chain
# modifications: MTSSL spin label (R1) on C30
# B3: p15 fragment of spin labeled cleaved mouse Bid (cBidR1), MTSSL on C126, P70444 60-195 (domain or fragment)
# chain: T1 chain
# modifications: here or on the partner: MTSSL spin label (R1) on C126; MTSSL spin label (R1) on C126
# B4: p15 fragment of Caspase-8-cleaved mouse Bid (tBid), P70444 60-195 (domain or fragment)
# chain: T1 chain
# Key:
# [1] = target: p15 fragment of Caspase-8-cleaved mouse Bid (tBid) (mouse) (UniProt P70444); assay: SEC; Superdex 75 column; no detergent, after addition of DTT or after spin labeling; data not shown; both purified
# [2] = target: p15 fragment of Caspase-8-cleaved mouse Bid (tBid) (mouse) (UniProt P70444); assay: SEC; Superdex 75 column, SMART system; soluble proteins, no detergent, without DTT; both purified
# [3] = target: p15 fragment of spin labeled cleaved mouse Bid (cBidR1), MTSSL on C126 (mouse) (UniProt P70444); assay: intrinsic tryptophan and tyrosine fluorescence spectra; excitation at 280 nm; protein 0.5 µM; without detergent, with 2% OG, and after removal of the detergent by extensive dialysis; both purified
# [4] = target: p7 fragment of spin labeled cleaved mouse Bid (cBidR1), MTSSL on C30 (mouse) (UniProt P70444); assay: DEER (pulse EPR); spin labels on C30 (p7) and C126 (p15); after removal of 2% OG by extensive dialysis; protein 180 µM; recorded at 50 K; both purified
# [5] = target: p15 fragment of spin labeled cleaved mouse Bid (cBidR1), MTSSL on C126 (mouse) (UniProt P70444); assay: as above
# [6] = target: p15 fragment of spin labeled cleaved mouse Bid (cBidR1), MTSSL on C126 (mouse) (UniProt P70444); assay: DEER (pulse EPR); spin labels on C30 (p7) and C126 (p15); with 0.5% DDM; protein 40 µM; recorded at 50 K; both purified
# [7] = target: p15 fragment of spin labeled cleaved mouse Bid (cBidR1), MTSSL on C126 (mouse) (UniProt P70444); assay: SEC; Superdex 75 column; no detergent, after addition of DTT or after spin labeling; data not shown; both purified
# [8] = target: p15 fragment of spin labeled cleaved mouse Bid (cBidR1), MTSSL on C126 (mouse) (UniProt P70444); assay: cw EPR and SDS PAGE of supernatant and washed pellet after incubation with liposomes; cBidR1 (110 µM) incubated for 3 h at 37°C with ECL or MOML liposomes (20 mg/ml lipids), then centrifuged; both purified
# [9] = target: T1, p15 fragment of spin labeled cleaved …; assay: DEER (pulse EPR); spin labels on C30 (p7) and C126 (p15); after removal of 2% OG by extensive dialysis; protein 180 µM; recorded at 50 K; both purified; conditions: remark: other sources report otherwise
# [10] = target: T2, p15 fragment of Caspase-8-cleaved mouse …; assay: SEC; Superdex 75 column, SMART system; soluble protein, no detergent, with DTT; both purified; conditions: remark: other sources report otherwise
# [11] = target: T2, p15 fragment of Caspase-8-cleaved mouse …; assay: SEC; Superdex 75 column, SMART system; soluble proteins, no detergent, without DTT; both purified; conditions: remark: other sources report otherwise
binder,measurement,setting,value
B1,binding,[1],binds
same,binding,[2],binds
B2,binding,[3],binds
same,binding,[4],no binding
same,binding,[5],binds
same,binding,[6],binds
same,binding,[7],binds
same,binding,[8],binds
B3,binding,[9],no binding
B4,binding,[10],no binding
same,binding,[11],no binding
